Some of the results follow. At the low end of the ranking the order means little. The protein was read in a cell extract, so binding may be indirect.
target: T1, HNF4alpha2 (COS-7 nuclear extract) (UniProt P41235); assay: protein-binding microarray; details: COS-7 nuclear extract on double-stranded Agilent 4x180k PBM; binding buffer, salt, pH and temperature not given; high values mean tight binding; double strand, one strand shown; sequences stand for … in …GCCTAGGGAGATTAGAGTATCGGTCGA
T1 sequence: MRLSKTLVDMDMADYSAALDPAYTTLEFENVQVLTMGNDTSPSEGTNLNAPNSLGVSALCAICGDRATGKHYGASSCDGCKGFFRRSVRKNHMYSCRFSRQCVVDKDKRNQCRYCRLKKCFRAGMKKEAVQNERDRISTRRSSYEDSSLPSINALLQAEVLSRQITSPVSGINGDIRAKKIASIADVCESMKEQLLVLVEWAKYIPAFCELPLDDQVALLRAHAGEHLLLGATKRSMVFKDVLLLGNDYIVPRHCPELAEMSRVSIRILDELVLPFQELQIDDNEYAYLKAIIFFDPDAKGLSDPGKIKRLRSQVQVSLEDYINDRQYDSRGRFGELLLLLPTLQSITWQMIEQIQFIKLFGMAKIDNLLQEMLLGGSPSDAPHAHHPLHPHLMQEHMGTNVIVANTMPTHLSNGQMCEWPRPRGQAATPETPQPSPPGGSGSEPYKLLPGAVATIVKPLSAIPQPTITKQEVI

Sequence	binding signal (log2 normalized intensity)
ACAACCTTTGGCCGTGCATGCTTGGACTCT	4.59
ACGCACTCGCCTCTCCTGTTCCGGTTGGGT	0.435
TCTCCTGGAAAGGTTCCACTCTGACTAACT	-1.15
ACAAGGGCATGTAAAGGAGATTATCTAGAC	-1.22
GAGACTGCTCGGCATCCCTGCCGTGGCTGG	-1.13
CATTCCAGGGTGAAATTCAACAGAACTGTT	-1.22
GACCAAAGATCACAGTGAAGGTGAAGAGTG	-0.69
GTGTTTGCCCAGCTTGAATCACTCACTGAC	-1.16
CCACGGAATCCCAGTTCTGATACACTCGCC	-1.16
CAAAGTAAACAAAGATACTCTCATCACTTA	-1.19
TCCACTCCGGGCGATCCGGGCTCCGGGCGC	-1.22
TACATTGAACTTTGAACACCTCTTCTTTCT	4.75
CTTGGACTGAAGACTGGAACTGGGCTGACT	-1.08
CTCGGCATCATGCCCTTTGGCCCCCAGAGC	6.14
TTCCTGGATTGTGAAACACAGGACTTGATC	0.71
ATATTTGCATAATGGAGCAAAGGTCATCCT	6.33
AAATCTTCAACTGGAGGATAAAGTTCAAGT	2.64
TGCCCTTCTTGTTAACCTCCTATGATCTTT	2.81
GGCCTTTCCTGACCCCTCCTCCCCCCGCCG	5.96
ACTCTCTCAACACTGGCTTCTCTGGCCTAG	-1.14
CTGAGGTGCCCTTACATTTTGCTCTTTGTA	2.07
GGACGTGTGTGTTCTGGACTTCTCTGCCCT	2.48
TGGAGGCGGTGCCATTCACAGGAATGTTGG	-0.759
GTGATCAATCAGCAGCAAAGTCCTGGAAGA	-0.809
AGATAAGAGGTGTCATGGCAATAAACAAAA	-1.15

Sequence	binding signal (log2 normalized intensity)
AAGTTAAAACAGCAGAGCACGATGAATAGG	-1.06
TCCTACTTTATCTAAGTAAACTAGTGATGT	1.67
TCTGTACAGCTCTTGTGCTCTGGACATACC	0.377
AGGCAGGACATCAAAGAACAAGTATCCTGG	-1.18
AGGAATGTACATAATCTGGACCCAAACGAA	2.34
TCTGTTTCTCTGTCTCTCTGCACACACAGA	-1.17
CTTCCCTCCACTATTGTCCTATGACCCTGC	4.03
TAATATTTTTGACTTACCATTTGCTGATAA	-0.862
GCAGCTCAAGGGTGTTCCTGAGTAAATCTC	-1.07
TTTGCTGAAGACAGGCCAGGGTGATCAAAC	1.11
ACCTTTGACCTGGTACTATGACCTTTCACC	7.01
TTGCCCCCCTGGGCTCAAGCGATCCTCCCA	4.62
CAGCATAGTCCTGCCACATTTTTATCCTTT	1.46
ACATTCGTTAACATCAGCTGAGCAGAGAGG	-0.891
GCTTTGATGTGTGTATCAATGGCCCCAGTG	2.37
CTCTTTTAGTAACTGACTTTAACTTCAAAG	0.473
TATGTTTCAGCCAAGAGCGGAAAGAAAGGC	-1.12
CAGCGCCTCCCGGTCACTACAACAACGGCG	-0.851
TCTCCAAACCCATATTCCTATCACCATATC	0.861
GGGCACTGATAACCTGCATTTGAAAGAGGT	-1.07
CCTTGGCTGTGTGACTCACCTTTGCTCTGA	3.71
GGGCTCAAGCGATCCTCCCACTTCAGCCTC	-1.11
TCATACCTCTTACCAGATAGATGCTGCTCT	-0.953
ATCACACAACTTTCATTGAACTGCTGGGGG	0.423
TCGCACCTAAGGGCACCCTTCCTGCTTCCA	-1.09

Sequence	binding signal (log2 normalized intensity)
TACCCTGGGAATGGAGAGAGAGAGAATAGC	-1.24
CAAACACAGATCAGATATGAGATTCCCAGA	-1.14
GGCGGAGAGCTCCGGGGTCACGCGCGTGTG	1.47
CTGCAATGACAATAAATTATACCAACTATT	-1.06
ATCCTTACACAGCAGCTTTAGTCAGAGATT	-0.896
CAAAAGCTGAGTCCCTGCTTGATAAGACTG	-1.06
AATTGACCTTTGATCACTCATGGGCAAGAT	5.65
GAAAGCTGGCTTGGAAAAAGCAGGCAACCA	-1.08
GCCAGAACTCAGGGTCTGGTTCCAAAGTCT	3.41
AGTTAGGTTCTGGCACCTGAAGCTGCCCTT	1.73
TGAACCCTTGGGGCTTTTGCAATTTAAACT	0.0972
TCTGATTTCCCCGTCCCAAGCTGAGGTCTG	2.8
GCACCCGGGCAGCCTGTGGCCAGGCTGCGT	-1.18
CTGTTAACTTCTTATGCATAGATGTTTAGC	0.46
TTGGGGCCCACAGAGTCCAGAGGTCACTTT	5.83
AAGACCGGTATTTGAGATATTTTTCAGACC	-0.611
GTTCTTATTTGCTGAGGAAGACTTCATTCA	-1.15
AAACACATGCAATCACACTAATCTGTCAGA	-1.17
TTTCTTCTCTGTAGGTAAACAGTGACTCAT	2.01
GATAAGAAGACTCCAGGGGACTGCCTCTTC	-1.16
TTCACTGTTTGCTTTTCTTATTTACCGAAA	0.917
AATTTGAACCAAGATCTGTGAAAGAAAAGT	0.169
TCACTCAGCAATAAATACCAAAGCCATGGC	-1.12
ATAGCCCAAGTTCAAAGGTTATCTGCTGGC	4.05
GGAAATACCGACAACGCCAAGGACCGCCAA	-1.13

Sequence	binding signal (log2 normalized intensity)
AGCCTTATCTTCCAGCCCTGTCTCTCAGGT	0.427
GGTCATCTGAGGGAAAAGATAAGATTATCT	-1.04
CTAAGCGATAAGGAGGAAGGACACTTAGAG	-1.09
GGTCACACAGCTAAGAGCCGCAGAGCTAAT	-0.956
TCCTCCTATGTCAATAGAGCATGAGAACTT	-0.0457
CCGCGCCCCGCCCCCAGTGCACCTTAATAA	5.22
TACAGAGCTGAAGTTTGCAAACAGTAAAGA	-0.168
TGGAAGGCTGTATGTACACTTGCCCTCTCA	3.19
TTTGAAGTCTGGTGGCAAGTACCCTTTATC	2.16
TGTCTCTTCTTGTACCTCTGGTGATTACCA	1.21
GGGCTGGTTGGCACGCTTAGGGAACAAAGG	1.25
ATACACACACACCCCTCCACTGGACAGCAG	2.12
ATGAAGCTAAAAGAAGTCCAAGGACTTATC	-1.02
AGTCTGGAAGTTGAATTCCTTCTTCTTCTG	0.0469
ATTCAACAGAGCTATTTTAGGGTAAAGATC	0.786
ATTTATTACAGAGAGGGGGAGTGAAGGTTA	-0.169
TAGCCTATCAGAAGAATCTGTATCAGCCTG	-1.09
AGATAAGGCTAGTAACACTCACATTCCACG	-1.05
CACCAGCTTCTTCTCTTTGACAAAAAATGA	1.1
CCTGGTAGTGCGACAAGAATGTGGTTCTTT	1.43
CCAGCCTGTCGGAATTTGCCCTGTGGTCTA	2.78
TCCCCCTGCCCTTCGTCCTGAGCAGTCCCT	2.4
CTAGGGGGCACCTCTGAAAGCACTTGTAGG	-0.691
GGAATTCTTCACCAAATCATTTCACTTCCT	-1.26
GCCTTCCCCGCCCGCAGCCCAGTCTTGGCC	3.99

Sequence	binding signal (log2 normalized intensity)
TAAAAATTAGCTGAACATGGTGACACACAC	-1.14
CCACCCTGGCAGAGGAAAAAGTCCCTGGTC	-1.03
GACCTTTGACCTTTATACCTGTACGTTACT	7.39
TACTGGGGATGGACTTTGGCCCTCAGCCCA	8.56
CCTTATCAGAAGGAAAGTCTCCCTCCCTTT	1.9
GATCATCTTCACCTGCCCTGAGTCCAGCCT	1.39
TTATCTGGGCCAGGTATTTGGACTTTTTGT	4.22
GATCTGGGTGTGCCATTCTTCCAGTTGTGT	1.84
GTTGAGGAGTTTGTACTTTATCCTACAAGG	2.25
AAAATATGGACTTTGGAATTAAGAAAAGCT	5.25
GACCTTGGAATGTCAAGATTGAGACATTCA	-0.182
TGGATCTTGAAGCAGAAAACCACTGTGCTC	-1.07
AGGAGGGACTGAACAGATATTGGCCAAAGG	0.0556
GAAAAGGCCTGACCTTTGCCCTCTGGCCCT	9.1
CAAGGGCTTACAACTCTAAGGGGGAAAGTC	-1.09
ACTCTTATCAGACAGGATATTTTGAGGGCT	-1.01
CACCTGCCCTCAGGGAGCTCCAGCACTGGG	-0.977
CGTCGCTGAGTGGAGGCCCAGTAAGTCCCA	0.00706
ATATTCACTATCTGATCCTTTACAGAGATA	-0.305
TACACAGAAGTTAATTTCAAAACAAATAAA	-1.11
AAAGATAATATTTTTGACTTACCATTTGCT	-1.09
GGTGGACCAAAACACTTGTGTCAACCGTGT	0.709
TGCAACCAGTTGGTGGGTCAAGGTGCAAAG	3
CTCCCCACAAATTCTGTACTTCAACCAGGT	1.85
CCTCAATGCTATCTCCCAGTTCTTTTGACC	2.52

Sequence	binding signal (log2 normalized intensity)
GGGGGCGACCTGCTGGACGGGAGGAAAACT	-1.17
CACTGCTCACAGGTTGTACTATGACCCAAA	5.42
TAATGAGGCCACTCCTGATAGCTAGAGAGT	-1.15
GTCAGAGATTTCTTTACCATACCAGATGAA	1.12
CCTTATGACGGACAAAGGGCTCTCTCACCA	-0.701
ATAGAGATTGCTTAATGCAAACTCCAGCAT	-1.11
TTATGTTGGCACTTCTCTCGGCCTTAAGAG	-1.08
TCACCAATGGTAACTGAAAGTCATGCTGAA	-0.962
AGTGGCTTCATTCCCGAGTGCCTTTAGAGG	1.01
GTTTAGGAGGAAATAGAGAGCAGACAGGGG	-1.22
CTGAGCTGGCAGGGAGGAGGGATCAAGCAG	-1.22
ATGACAGTACCTCTCAAAAATCTCACTCAC	-1.02
AGCATGCTTCCCAAATGGAGTGCCCTAGGA	0.716
TAATTGAGTAACCAGCTGCCTCTTGTGTTC	1.59
GCTCGGCTCGCTCTCCCTGCTGGCCTGGGA	-1.15
GCTTTAGATATCAGAAATGCATGAGTGACC	2.39
TCGCGCCCCAACGGATACCTCTTTGAACTG	0.875
ACTGATTCTCCAGGAAGTTCAGGCCTCGGC	-0.913
ACCAAATGGGAACATTCCTCAGGGAATTTC	-0.535
ATATTAACCTTTGCCCCAGCTGTCACCCAG	5.03

— publication PMC10726135
